Measured values reported in patent US20240400644A1 (ACROIMMUNE GUANGZHOU BIOTECH, published 2024).

Columns and labels:
Experiment in all cases: ELISA: Siglec-Fc coated at 0.2 µg/mL, biotin-labeled AI-071 titrated 2-fold, avidin-HRP
[1] = target: T1, human Siglec-2 Fc fusion protein (human, UniProt P20273 20-687, limits assumed)
T1 construct: Recombinant IgG-Fc fusion, coated at 0.2 µg/mL; not shown: IgG-Fc
T1 sequence (looked up): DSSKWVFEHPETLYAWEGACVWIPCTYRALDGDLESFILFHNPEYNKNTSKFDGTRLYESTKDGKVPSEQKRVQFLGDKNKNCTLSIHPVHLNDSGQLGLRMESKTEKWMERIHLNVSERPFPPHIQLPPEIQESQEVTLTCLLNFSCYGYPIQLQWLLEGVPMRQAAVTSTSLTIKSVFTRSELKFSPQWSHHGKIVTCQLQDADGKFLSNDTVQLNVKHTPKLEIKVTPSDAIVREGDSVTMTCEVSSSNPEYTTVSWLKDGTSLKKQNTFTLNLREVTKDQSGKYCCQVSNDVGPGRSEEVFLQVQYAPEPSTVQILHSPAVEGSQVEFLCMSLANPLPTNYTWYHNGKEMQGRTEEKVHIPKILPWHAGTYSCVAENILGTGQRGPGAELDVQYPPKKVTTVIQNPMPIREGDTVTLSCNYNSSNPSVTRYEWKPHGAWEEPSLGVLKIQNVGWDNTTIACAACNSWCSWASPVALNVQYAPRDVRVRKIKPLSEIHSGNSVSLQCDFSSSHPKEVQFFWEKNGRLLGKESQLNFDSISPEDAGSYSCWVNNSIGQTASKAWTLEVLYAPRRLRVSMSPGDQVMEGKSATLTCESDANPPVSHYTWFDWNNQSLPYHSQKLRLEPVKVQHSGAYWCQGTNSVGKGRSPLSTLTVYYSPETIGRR
Protocol: (§1) Briefly, 2-fold dilutions of biotin-labeled AI-071 fusion protein were added into 96-well plated coated with indicated Siglec-Fc fusion proteins (all coating at 0.2 μg/mL), the amount of bound AI-071 protein was then detected by adding Avidin-HRP and OPD.
(§2) To evaluate the spectrum of Siglecs that binds to AI-071, recombinant IgG-Fc fusion protein containing one of the human siglec family members (Siglec-1, 2, 3, 4a, 5, 6, 7, 8, 9, 11, 14 and 15) were coated in 96-well plates and their binding to biotin-labeled AI-071 protein was detected in ELISA. The representative ELISA results are shown in FIG. 4B (Siglec-1, 2, 3, 4a, 5 and 6) and FIG. 4C (Siglec-7, 8, 9, 11, 14 and 15).

[2] = target: T2, human Siglec-3 Fc fusion protein (human, UniProt P20138 18-259, limits assumed)
T2 construct: Recombinant IgG-Fc fusion, coated at 0.2 µg/mL; not shown: IgG-Fc
Protocol: as §1, §2

[3] = target: T3, human Siglec-6 Fc fusion protein (human, UniProt O43699 27-347, limits assumed)
T3 construct: Recombinant IgG-Fc fusion, coated at 0.2 µg/mL; not shown: IgG-Fc
Protocol: as §1, §2

[4] = target: T4, human Siglec-7 Fc fusion protein (human, UniProt Q9Y286 19-357, limits assumed)
T4 construct: Recombinant IgG-Fc fusion, coated at 0.2 µg/mL; not shown: IgG-Fc
Protocol: as §1, §2

[5] = target: T5, human Siglec-8 Fc fusion protein (human, UniProt Q9NYZ4 17-363, limits assumed)
T5 construct: Recombinant IgG-Fc fusion, coated at 0.2 µg/mL; not shown: IgG-Fc
Protocol: as §1, §2

[6] = target: T6, human Siglec-9 Fc fusion protein (human, UniProt Q9Y336 18-348, limits assumed)
T6 construct: Recombinant IgG-Fc fusion, coated at 0.2 µg/mL; not shown: IgG-Fc
Protocol: as §1, §2

[7] = target: T7, human Siglec-14 Fc fusion protein (human, UniProt Q08ET2 17-358, limits assumed)
T7 construct: Recombinant IgG-Fc fusion, coated at 0.2 µg/mL; not shown: IgG-Fc
T7 sequence (looked up): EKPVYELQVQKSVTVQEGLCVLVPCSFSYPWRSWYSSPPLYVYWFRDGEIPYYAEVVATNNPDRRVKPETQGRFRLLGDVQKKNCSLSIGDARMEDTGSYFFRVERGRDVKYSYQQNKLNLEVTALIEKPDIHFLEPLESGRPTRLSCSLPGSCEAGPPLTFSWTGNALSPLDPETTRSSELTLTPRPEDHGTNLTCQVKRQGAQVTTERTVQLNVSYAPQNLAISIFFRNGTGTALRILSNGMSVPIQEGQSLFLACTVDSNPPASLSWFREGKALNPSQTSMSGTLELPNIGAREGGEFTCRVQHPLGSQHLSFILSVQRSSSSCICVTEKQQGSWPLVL
Protocol: as §1, §2

[8] = target: T8, human Siglec-15 Fc fusion protein (human, UniProt Q6ZMC9 20-263, limits assumed)
T8 construct: Recombinant IgG-Fc fusion, coated at 0.2 µg/mL; not shown: IgG-Fc
T8 sequence (looked up): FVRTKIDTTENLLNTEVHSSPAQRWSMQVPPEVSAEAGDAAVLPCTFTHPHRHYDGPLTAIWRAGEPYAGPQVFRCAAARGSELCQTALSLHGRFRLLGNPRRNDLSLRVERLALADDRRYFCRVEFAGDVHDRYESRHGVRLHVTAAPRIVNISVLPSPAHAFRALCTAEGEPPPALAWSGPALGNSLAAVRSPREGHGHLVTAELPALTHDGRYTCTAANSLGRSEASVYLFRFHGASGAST
Protocol: as §1, §2

Measured: binding result

T2 sequence (P20138 18-259 limits assumed): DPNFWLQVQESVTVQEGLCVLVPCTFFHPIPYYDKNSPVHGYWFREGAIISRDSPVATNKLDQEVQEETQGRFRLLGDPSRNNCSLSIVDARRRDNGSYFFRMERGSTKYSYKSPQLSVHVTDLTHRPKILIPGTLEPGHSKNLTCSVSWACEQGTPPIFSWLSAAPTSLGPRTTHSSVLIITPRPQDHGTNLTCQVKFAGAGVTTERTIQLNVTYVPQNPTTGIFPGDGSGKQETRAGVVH
T4 sequence (Q9Y286 19-357 limits assumed): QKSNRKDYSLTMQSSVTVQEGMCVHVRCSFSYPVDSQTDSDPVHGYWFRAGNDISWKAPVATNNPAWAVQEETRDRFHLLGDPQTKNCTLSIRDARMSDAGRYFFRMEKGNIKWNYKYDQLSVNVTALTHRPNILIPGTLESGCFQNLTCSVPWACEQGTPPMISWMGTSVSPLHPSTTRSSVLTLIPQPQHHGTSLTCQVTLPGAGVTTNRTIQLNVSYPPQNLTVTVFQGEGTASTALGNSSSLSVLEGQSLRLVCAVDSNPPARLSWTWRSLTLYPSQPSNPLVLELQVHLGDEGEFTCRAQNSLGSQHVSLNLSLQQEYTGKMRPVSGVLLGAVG
T5 sequence (Q9NYZ4 17-363 limits assumed): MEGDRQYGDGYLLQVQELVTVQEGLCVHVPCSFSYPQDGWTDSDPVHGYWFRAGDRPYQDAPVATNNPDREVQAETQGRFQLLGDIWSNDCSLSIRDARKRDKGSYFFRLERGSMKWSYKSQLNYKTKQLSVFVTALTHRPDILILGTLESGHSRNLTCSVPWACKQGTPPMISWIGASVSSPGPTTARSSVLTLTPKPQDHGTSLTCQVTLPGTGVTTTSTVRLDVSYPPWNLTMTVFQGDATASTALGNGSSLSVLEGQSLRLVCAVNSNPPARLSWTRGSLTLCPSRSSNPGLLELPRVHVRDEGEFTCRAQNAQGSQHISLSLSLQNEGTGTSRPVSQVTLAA
T3 sequence (O43699 27-347 limits assumed): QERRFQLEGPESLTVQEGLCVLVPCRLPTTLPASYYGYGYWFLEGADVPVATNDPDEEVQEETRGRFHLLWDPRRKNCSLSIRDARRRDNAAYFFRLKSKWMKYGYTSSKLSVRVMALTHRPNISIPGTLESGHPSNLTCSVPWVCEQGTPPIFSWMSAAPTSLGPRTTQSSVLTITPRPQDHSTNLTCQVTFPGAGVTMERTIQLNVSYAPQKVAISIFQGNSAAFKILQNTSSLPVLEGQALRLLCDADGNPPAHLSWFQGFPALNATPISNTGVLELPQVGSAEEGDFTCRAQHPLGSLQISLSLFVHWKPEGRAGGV
T6 sequence (Q9Y336 18-348 limits assumed): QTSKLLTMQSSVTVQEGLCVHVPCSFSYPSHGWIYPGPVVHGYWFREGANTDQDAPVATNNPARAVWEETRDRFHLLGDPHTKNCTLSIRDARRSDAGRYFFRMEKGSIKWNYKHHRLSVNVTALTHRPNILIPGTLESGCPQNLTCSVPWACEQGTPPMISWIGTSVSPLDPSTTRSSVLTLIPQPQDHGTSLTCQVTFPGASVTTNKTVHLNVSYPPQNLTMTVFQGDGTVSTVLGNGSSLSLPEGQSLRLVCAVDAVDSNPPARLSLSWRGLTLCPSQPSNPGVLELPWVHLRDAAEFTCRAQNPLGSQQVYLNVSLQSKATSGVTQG

B1: AI-071 fusion protein (Fc fusion)
chain: STSNSGLAPNPTSTSNSGLAPNPTSTSNSGLAPNPTSTSNSGLAPNPTSTSNSGLAPNPT[human IgG1 Fc skipped]
notes: Disulfide-linked homodimer; Used biotin-labeled in the Siglec panel ELISA; also called AI-071 Fc-fusion protein; AI-71
binds: all assays above
